The campaign covered roughly 360,000 compounds. About 780 (0.22%) were called active. The inconclusive results got no clear call from the source; some entries with a clear call stand among them for comparison. Rule as the data show it: active = inhibition above about 8.5% (passing the limit was not always enough); inconclusive = no clear call, values can overlap the other calls.
Tested on: Mycobacterium tuberculosis FadD28 fatty-acid-AMP ligase
Assay: inhibitors of FadD28 bisubstrate probe binding, primary screen, biochemical, fluorescence polarization, single point (AID 588549)
Conditions: at 12.5 µM, stronger effect = higher value

Q: How did the inhibition turn out when `CCCCCCCCSC1=CC(=O)C(OC)=C(OC)C1=O` was run?
A: inconclusive: 13.8%

Q: Which inhibition does the source give for `O=C(N/N=C/c1cccnc1)c1cccc(N2CCCC2=O)c1` here?
A: inactive: -2.56%

Q: How did the inhibition turn out when `CN(C)S(=O)(=O)c1cccc(C(=O)OCC(=O)Nc2sccc2C#N)c1` was run?
A: inconclusive: 6.55%

Q: For `CCOc1ccc(-n2c(=O)c3sccc3n(CC(=O)Nc3cccc(OC)c3)c2=O)cc1`, which inhibition is on record?
A: inconclusive: 30.1%

Q: For `O=C(CSc1ncnc2scc(-c3ccccc3)c12)Nc1ccc(C(=O)O)cc1`, which inhibition is on record?
A: inactive: -9.04%

Q: Which inhibition does the source give for `COc1ccc(C2(CNC(=O)C(c3ccccc3)c3ccccc3)CCOCC2)cc1OC` here?
A: inconclusive: 4.42%

Q: How did the inhibition turn out when `CCC(C(=O)OC)n1cnc2scc(-c3ccc(C)c(C)c3)c2c1=O` (centres undefined) was run?
A: inactive: -1.95%

Q: How did the inhibition turn out when `COc1cc(/C=N/NC(=S)NCc2ccco2)cc(OC)c1OC` was run?
A: inactive: -3.82%

Q: How did the inhibition turn out when `CC1=Nc2ccccc2/C1=C/c1c(N)n2c(S(=O)(=O)CC(C)C)nsc2nc1=O` was run?
A: inconclusive: -3.58%

Q: `O=C(Nc1ccc(F)cc1)C1CC(=O)n2c(nc3ccccc32)N1` (centres undefined) was tested. Which inhibition did it give?
A: inactive: -0.383%

Q: For `COc1cc2c(cc1OC)C(c1ccc(C)cc1)NC(=O)C2` (centres undefined), which inhibition is on record?
A: inactive: -5.03%

Q: `CC1CCCN(Cc2c(O)ccc3c(=O)c(-c4nc5ccccc5s4)c(N)oc23)C1` (centres undefined) was tested. Which inhibition did it give?
A: inconclusive: 5.04%

Q: For `S=C(Nc1ccccc1)N1CCN(c2ccc(N3CCOCC3)nn2)CC1`, which inhibition is on record?
A: inconclusive: 7.97%

Q: With `CC(=O)N(C(C)=O)c1c(C#N)c(C)n(-c2ccccc2)c1C(=O)c1ccccc1` as the compound, how does the inhibition read?
A: inactive: -4.83%

Q: For `COc1cc(C2c3cc4c(cc3C(OC3OC5COC(c6cccs6)OC5C(O)C3O)C3COC(=O)C23)OCO4)cc(OC)c1O` (centres undefined), which inhibition is on record?
A: inactive: -0.336%

Q: `CCN(CC)c1ccc(/C=C(/C#N)C(=O)NC(C)C)o1` was tested. Which inhibition did it give?
A: inactive: -0.538%

Q: Which inhibition does the source give for `O=C(O)CN1CCN(Cc2ccccc2F)C1=O` here?
A: inconclusive: 7.12%

Q: `COc1ccc(C2CC(c3ccccc3)=NN2c2ccc(S(N)(=O)=O)cc2)cc1OC` (centres undefined) was tested. Which inhibition did it give?
A: inactive: 1.52%

Q: With `Oc1ccc(Nc2nc3ccccc3nc2Nc2ccc(O)cc2)cc1` as the compound, how does the inhibition read?
A: inconclusive: 6.26%

Q: Which inhibition does the source give for `O=C(Cc1cccc2ccccc12)Nc1ccc(-c2cc3ccccc3oc2=O)cc1` here?
A: inactive: -0.978%

Q: With `O=C(NCc1ccco1)c1sc(=S)n2c1[nH]c(=O)c1ccccc12` as the compound, how does the inhibition read?
A: inconclusive: 13.4%

Q: With `CCCCCCCCCCCCN1[C@@H](CC(=O)O)c2cc(C(F)(F)F)ccc2S1(=O)=O` as the compound, how does the inhibition read?
A: inconclusive: 6.82%

Q: How did the inhibition turn out when `O=c1[nH]c(CN2CCN(S(=O)(=O)/C=C/c3ccccc3)CC2)nc2cc(Cl)ccc12` was run?
A: inactive: -1.7%

Q: Which inhibition does the source give for `NS(=O)(=O)c1cccc(Nc2nc3ccccc3nc2NS(=O)(=O)c2ccc(Cl)cc2)c1` here?
A: inconclusive: 7.05%

Q: How did the inhibition turn out when `CCc1cc(C(=O)O)c(NC(=O)C(c2ccccc2)c2ccccc2)s1` was run?
A: inconclusive: 5.93%

Q: For `Cn1c(/C(C#N)=C/c2ccc(-c3ccc(S(N)(=O)=O)cc3)o2)nc2ccccc21`, which inhibition is on record?
A: active: 11.4%

Q: How did the inhibition turn out when `Cc1ccc(-n2cc(CNC(C)Cn3cncn3)c(-c3ccc(F)cc3)n2)cc1` (centres undefined) was run?
A: inconclusive: 7.16%

Q: For `Cc1sc(-n2c(C)cc(/C=C3\SC(=S)NC3=O)c2C)c(C#N)c1C`, which inhibition is on record?
A: active: 16.9%

Q: For `CC(/C=C1\SC(=S)N(NS(=O)(=O)c2ccccc2)C1=O)=C\c1ccccc1`, which inhibition is on record?
A: inconclusive: 5.39%

Q: Which inhibition does the source give for `Nc1cc(Cl)ccc1C(=O)OCC(=O)N1CCCC1` here?
A: inactive: -2.48%

Q: `O=C(O)c1ccc(NS(=O)(=O)c2ccc3c(c2)C(=O)c2cc(S(=O)(=O)Nc4ccc(C(=O)O)cc4)ccc2-3)cc1` was tested. Which inhibition did it give?
A: inconclusive: 7.28%

Q: `COc1ccc(CNC(=O)CN(Cc2ccc(OC)cc2)C(=O)CCC(=O)Nc2nccs2)cc1` was tested. Which inhibition did it give?
A: inconclusive: 6.46%

Q: How did the inhibition turn out when `CCN(CCn1cccn1)C(=O)CC1C(=O)NCCN1CCc1ccccc1` (centres undefined) was run?
A: inactive: -1.26%

Q: How did the inhibition turn out when `COc1ccc(OCC(=O)NNC(=O)C(=O)N2CCCC2)cc1` was run?
A: inconclusive: 5.27%

Q: For `Nc1ccc2nc(-c3ccccn3)[nH]c2c1`, which inhibition is on record?
A: inconclusive: 8.33%

Q: With `CC(C)NC(=O)c1sc(=S)n2c1[nH]c(=O)c1ccc(C(=O)NCCc3ccc(Cl)cc3)cc12` as the compound, how does the inhibition read?
A: inconclusive: 8.35%

Q: How did the inhibition turn out when `O=c1[nH]c(=S)[nH]c2c1C(c1ccc(Br)cc1)c1c([nH]c(=S)[nH]c1=O)O2` was run?
A: inconclusive: 7.66%

Q: Which inhibition does the source give for `CC(=O)c1cccc(NC(=O)NC2CCCCCCC2)c1` here?
A: active: 15%

Q: `Cc1cccc(CN2C(=O)N/C(=C/c3cc(C)n(-c4cc(C)ccn4)c3C)C2=O)c1` was tested. Which inhibition did it give?
A: inconclusive: 8.67%

Q: For `CC(C)CNC(=O)NC(=O)COC(=O)COc1ccc(Cl)cc1Cl`, which inhibition is on record?
A: inconclusive: 8.14%

Q: Which inhibition does the source give for `N#CCCN(Cc1ccccc1)C(C(=O)NC1CCCCC1)c1ccnc2ccccc12` (centres undefined) here?
A: inactive: -3.6%

Q: Which inhibition does the source give for `COc1ccc(/C=C2\SC(=Nc3ccccc3Cl)NC2=O)c(OC)c1` here?
A: inactive: -1.56%

Q: How did the inhibition turn out when `O=S(=O)(O)c1cc(Cl)cc(N=Nc2ccc(O)cc2O)c1O` was run?
A: active: 34.4%

Q: `COC(=O)c1c(N(S(C)(=O)=O)S(C)(=O)=O)sc2c1CCN(c1ncc(C(F)(F)F)cc1Cl)C2` was tested. Which inhibition did it give?
A: inconclusive: 48.9%

Q: With `CN=c1scc(-c2cccs2)n1/N=C/c1ccc(O)c(O)c1O` as the compound, how does the inhibition read?
A: inconclusive: 5.46%

Q: `CN1C/C(=C/c2ccccc2[N+](=O)[O-])C(=O)/C(=C\c2ccccc2[N+](=O)[O-])C1` was tested. Which inhibition did it give?
A: inactive: -0.781%

Q: `Cc1ccsc1C1Nc2ccccc2C(=O)N1O` (centres undefined) was tested. Which inhibition did it give?
A: inactive: -2.73%

Q: Which inhibition does the source give for `CCSc1nsc(NC(=O)Nc2ccccc2F)n1` here?
A: inactive: -0.602%

Q: For `CCN(C(=O)c1cc(OC)c(OC)c(OC)c1)C1CCCCC1`, which inhibition is on record?
A: inconclusive: 6.71%

Q: For `S=c1[nH]nc(-c2cc3c(s2)-c2ccccc2CC3)o1`, which inhibition is on record?
A: inconclusive: 8.04%

Q: How did the inhibition turn out when `COc1ccc(OC)c(NC(=O)CN2C(=O)C(C)N(c3ccc(C)cc3)C2=O)c1` (centres undefined) was run?
A: inconclusive: 7.79%

Q: How did the inhibition turn out when `COc1ccc(CCNC(=O)CCNC(=O)N2CC(=O)Nc3ccccc32)cc1` was run?
A: inconclusive: 3.03%

Q: `CC(=O)Nc1cccc(/C(C)=N/Nc2ccc(S(=O)(=O)Nc3ccccc3C(=O)O)cc2[N+](=O)[O-])c1` was tested. Which inhibition did it give?
A: active: 18.9%

Q: How did the inhibition turn out when `COc1cc(C(=S)NCc2ccccc2)cc(Br)c1O` was run?
A: active: 11%

— PubChem BioAssay AID588549 (Broad Institute, 2011)
